Test results from ChEMBL document CHEMBL4888484, “Replenishing the malaria drug discovery pipeline: Screening and hit evaluation of the MMV Hit Generation Library 1 (HGL1) against asexual blood stage Plasmodium falciparum ,using a nano luciferase reporter read-out” (2022).
Screen size: about 150,000 compounds; about 540 (0.36%) showed an effect of 50% or more. This is one part of the list.

Test system: Plasmodium falciparum
Test: Primary screen in NF54 nanoGlo assay, in single point, at 2uM, 72h; a lower Z score goes with more inhibition
Assay type: functional, Erythrocyte
Conditions: timepoint 72 hour

Row | Structure (SMILES) | % Inhibition [%] | Z score
1 | Cc1cccc(NC(=O)COc2c(C)[nH]ccc2=O)n1 | -4 | 0.75
2 | Cc1sc2ccccc2c1CN1CCO[C@H](C(=O)N(C)C)C1 | -13 | 2.57
3 | CCc1ncnc(N2CC(c3cnc4ccccc4n3)C2)c1F | -10 | 1.11
4 | CC1(C)CCc2sc(CNC(=O)C3(O)CCOCC3)cc2C1 | 11 | -1.08
5 | CCCN(Cc1c(C)nn(-c2ccccc2)c1N1CCN(CC)CC1)C(=O)CC(C)(C)C | -12 | 1.35
6 | C=CCN(CC=C)C(=O)Cn1ccnc1 | 0 | 0.05
7 | Cn1nnc2c(C(=O)NC[C@]3(O)CCCC3(C)C)ccnc21 | 6 | -1.13
8 | Cn1cnc(C(=O)N2CCCCCC2CC(O)c2ccco2)c1 (stereo not given) | -14 | 2.03
9 | C#CCCC1(CCC(=O)N(C)C[C@H]2CN(CC)c3ccccc3O2)N=N1 | -7 | 0.85
10 | C[C@H]1CN(C(=O)COCc2ccccc2)C[C@]1(O)C1CC1 | -2 | 0.3
11 | C[C@@H](c1noc(-c2ccccc2O)n1)n1ccnc1 | -7 | 0.8
12 | CN(Cc1cccc(C#N)c1)CC1(CO)CCC1 | -3 | 0.45
13 | CCc1nc(CNC(=O)NC[C@H](O)COc2ccc(Cl)c(C)c2)no1 | -14 | 2.44
14 | CN(C)c1ncccc1NC(=O)c1coc(CC2CC2)n1 | -12 | 1.68
15 | CCCc1nn(-c2ccc(Cl)cc2)c(=O)n1CC(=O)NC[C@H]1CCCO1 | -5 | 1.04
16 | CCCC1CN(C(=O)C2CCOC(C)C2)CCN1C(=O)C1CCOC(C)C1 (stereo not given) | 1 | -0.28
17 | CN1N=C(C(=O)NCCc2nc3c(s2)CCC3)CCC1=O | -7 | 1.25
18 | Cc1cc(NC(=O)[C@@H]2CCCN2S(C)(=O)=O)cc2sc(N)nc12 | -4 | 0.5
19 | CCc1noc2nc(C)nc(NCc3cccc(Cl)c3)c12 | 0 | 0
20 | COc1cccc(-c2ccc(N3CCN(C(=O)CN(CCc4ccccc4)C(=O)c4ccco4)CC3)nn2)c1 | -17 | 2.44
21 | Cc1cc(C)cc(OCCN2C(=O)c3ccccc3CS2(=O)=O)c1 | -10 | 1.31
22 | Cc1nc(N2CCOCC2)cc(N2CCN(C(=O)c3cccc(Br)c3)CC2)n1 | 31 | -4.18

Row | Structure (SMILES) | % Inhibition [%] | Z score
23 | CC(C)N(CCCNC(=O)c1cnn2c3c(cnc12)CCCCCC3)Cc1ccccc1 | 37 | -0.86
24 | O=C(c1cnn(-c2ccccc2)n1)N(c1ccccc1)C1CCCCC1 | 5 | -0.68
25 | CCN(CCNC(=O)[C@]1(C)COCc2nnc(C3CC3)n21)c1ccccc1 | -17 | 1.92
26 | CNc1ccccc1C(C)(C)c1cc(=O)[nH][nH]1 | -12 | 1.25
27 | COCCn1ccnc1C1N(C(=O)C(N)C2CCC2)CC1(C)C (stereo not given) | 0 | 0.05
28 | COc1cccc(CC(=O)N2CCOc3ccc(CN4CCOCC4)cc3C2)c1 | -21 | 2.23
29 | CCCN(Cc1c(-c2cccc(C)c2)noc1N1CCOCC1)C(=O)c1ccc(Cl)cc1 | -13 | 2.1
30 | COCC[C@]1(C(=O)O)CCN(C(=O)OC(C)(C)C)C1 | 3 | -0.62
31 | COc1ncc(Br)cc1CN1C(=O)[C@H](C)N(C)C1=O | 15 | -1.88
32 | FC(F)(F)CN1CCOC[C@H]1c1nc(-c2ccsc2)no1 | -11 | 0.94
33 | COC(c1ccc(Cl)cc1)C(C)NC(=O)C1(C)CCOCC1 (stereo not given) | 0 | -0.01
34 | CN(C)C(=O)CCC(=O)N1CC[C@](C)(O)[C@H](Cc2ccccc2)C1 | 10 | -1.27
35 | Nc1nc(-c2ccccc2)c2n1NC(=O)C[C@H]2C(=O)Nc1ccccc1 | -9 | 1.14
36 | CC(CC(N)=O)NC1CCN(C(C)C)C1c1ccc(Cl)c(F)c1 (stereo not given) | -17 | 1.94
37 | CC=C(C)C(=O)N1C[C@H](NC(=O)OC(C)(C)C)[C@@H](c2cnn(C)c2)C1 | -12 | 1.18
38 | OCc1ccccc1-c1cnn(Cc2ccccc2)c1 | -21 | 1.95
39 | COC[C@](C)(CNS(=O)(=O)c1cccnc1)OC | -24 | 4.5
40 | COc1nccc(N(C)C)c1NC(=O)NCCc1cccs1 | -6 | 0.97
41 | Cc1nc[nH]c1CN1C[C@H]2CC[C@@H](C1)N(Cc1cc(CN(C)C)cs1)C2 | -6 | 0.83
42 | Cc1cc(F)ccc1-n1ccc(NC(=O)N[C@@H]2C=C[C@H](CO)C2)n1 | -4 | 0.68
43 | CN(C(=O)c1ccc(F)c(C#N)c1)[C@H]1CC1(C)C | -1 | 0.12
44 | O=C(CCn1cncn1)N1CCO[C@@H](CC(c2ccccc2)c2ccccc2)C1 | -9 | 1.16

Row | Structure (SMILES) | % Inhibition [%] | Z score
45 | Cc1ccnc([C@H](C2CC2)n2cc(-c3nc(C)n4ccccc34)nn2)c1 | 17 | -2.21
46 | Cc1nnnn1[C@@H](C(=O)NCc1cc2n(n1)CCNC2)c1ccccc1 | -7 | 1.07
47 | O=C(O)[C@@H]1CN(C(=O)Cc2ccc(O)cc2)C[C@@H]1c1ccccc1 | -6 | 0.95
48 | COc1ccc(OC)c2c1cc(C(=O)Nc1ccncc1)n2C | -7 | 0.85
49 | Cc1nn(C)c(Cl)c1S(=O)(=O)N1CCCNCC1 | -7 | 1.05
50 | C#C[C@@H](NC(=O)NCc1ccc(S(C)(=O)=O)c(Cl)c1)C(C)C | -14 | 1.28
51 | CC(C)N1C[C@H](CNC(=O)c2ccc(Cl)s2)C2(CCCCC2)C1 | -3 | 0.56
52 | CC(=O)NC[C@H]1CN(C(=O)Cc2cccc(C(F)(F)F)n2)CCO1 | -5 | 0.48
53 | CN(C)c1ccc(NC(=O)CCCc2ccc3[nH]c(=O)[nH]c3c2)nc1 | 0 | 0.04
54 | COc1ccc(C(=O)N2c3cc(CNC(=O)c4cccc(OC)c4)ccc3C[C@@H]2C)cc1 | 16 | -1.87
55 | Cc1ccc(C)c(C2CC3CC2C2C(=O)N(c4ccc(Br)cc4)C(=O)C32)c1 (stereo not given) | -4 | 0.54
56 | C[C@@H](Oc1cnc2ccccc2c1)C(=O)N[C@H]1CCO[C@@H]1c1ccc(=O)[nH]c1 | -6 | 0.94
57 | CC(=O)NC(C)C(=O)N1CCO[C@@H](C)C1 (stereo not given in full) | 1 | -0.18
58 | CCCS(=O)(=O)Nc1ccccc1-c1ncc2n1CCCC2 | -15 | 1.74
59 | COc1ccc(N2CCN3c4ccc(C(F)(F)F)cc4CC(C(=O)NCCC(C)C)C3C2)cc1 (stereo not given) | 4 | -0.37
60 | CCOc1ncccc1NC(=O)c1cc(C)no1 | -13 | 1.14
61 | O=C(NC(c1ccccc1)c1ccccc1)c1cc2n(n1)CCN(Cc1ccccc1Cl)C2=O | 4 | -0.76
62 | O=C(O)[C@H]1CCN(C(=O)c2ccc3c(c2)CCCC3)C1 | -10 | 1.43
63 | C[C@H]1CS(=O)(=O)CCCN1C(=O)Cc1ccc2cnccc2c1 | -2 | 0.3
64 | Cc1ccc(CN2CCN(c3ncccn3)CC2)o1 | -14 | 1.95
65 | CCn1ncnc1[C@H](C)n1cnc2cccnc2c1=O | -13 | 1.24
66 | Cc1nccn1[C@H]1CCCN(c2nc(N)nc3c2cnn3C)C1 | -14 | 1.44

Row | Structure (SMILES) | % Inhibition [%] | Z score
67 | CC(NC(=O)C1CC2CCCCC2N1S(=O)(=O)c1ccc2c(c1)OCCO2)c1ccccc1 (stereo not given) | -33 | 3.88
68 | O=C(O)C1CN(c2nc3c(F)cccc3s2)C1 | 24 | -3.02
69 | O=C(Cc1ccccc1)N1CCN(C(=O)c2cccc(F)c2)CC1 | -10 | 1.97
70 | Cc1cc2c(cc1C)C(C(=O)N1CCOC(CNc3nccn(C)c3=O)C1)CO2 (stereo not given) | 26 | -2.97
71 | Cc1cnc(C(=O)NC[C@@H]2CN(C)C(=O)[C@H](c3ccccc3)N2Cc2cccnc2)cn1 | -1 | 0.11
72 | Cc1cc(NC(=O)NCCc2cn[nH]c2)cnc1C(F)(F)F | -9 | 1.61
73 | Cc1nonc1[C@@H]1CCCN1Cc1ccc(-c2ccn(CCCF)n2)o1 | -9 | 0.83
74 | O=C1c2ccccc2C(=O)N1C[C@@H](O)Cn1ccnc1 | -13 | 1.22
75 | CCc1nc(CN2CCC[C@H](O)CC2)no1 | -9 | 1.75
76 | CCC[C@]1(O)CCC12CCN(C(=O)c1ccc3ncccc3c1)CC2 | 2 | -0.31
77 | CCC[C@]1(CO)CCN(Cc2csc(CCC(C)C)n2)C1 | -21 | 2.31
78 | CCC(NC(=O)NC1CCc2c(nnn2C)C1)C(F)F (stereo not given) | -3 | 0.38
79 | Cc1cc(C)n(-c2ccnc(N3CCc4ccccc4C3)n2)n1 | -18 | 1.92
80 | CO[C@H]1CCCOC12CCN(C(=O)c1cc(C)nc3onc(C)c13)CC2 | -11 | 1.49
81 | OC[C@H](CC1CCC1)Nc1cnccn1 | 1 | -0.13
82 | Cc1ncsc1C(=O)N(C)Cc1cnn(C)c1 | 9 | -1.51
83 | Cc1ccn2c(Nc3ccc4c(c3)OCCO4)c(-c3ccc(N4CCOCC4)cc3)nc2c1 | -3 | 0.53
84 | c1ccc([C@@H]2CN(c3nnc(-c4ccccn4)s3)CCO2)cc1 | -2 | 0.19
85 | O=C(NCC1CCCCC1)[C@@]1(CCO)CC12CCOCC2 | 3 | -0.57
